The results in this text go back to PMC10904736, “A c-di-GMP signaling module controls responses to iron in Pseudomonas aeruginosa” (Nature Communications, 2024).

The target in experiment [1] is CHASE4 domain of IsmP (CHASE4^IsmP) (Pseudomonas aeruginosa PAO1) (UniProt Q9I243). The experiment can be described thus: SEC + native gel or EMSA; CHASE4 domain expressed in Fe^3+-containing M9 medium; both purified. (Mobility shift assays separate free from complexed probe on a gel.)
Experiment [2] has the same target. The experiment can be described thus: crystal structure; CHASE4^IsmP, sitting-drop vapor diffusion at 289.15 K; 1.9 Å, P22_(1)2_(1); both purified.

No constants are given. Whether binding was seen depends on the method and setting. Some entries that bind do so weakly or less than the wild type.

“CHASE4 domain of IsmP (CHASE4^IsmP) (from UniProt Q9I243 40-255) (domain or fragment)”: the binding entry in experiment [1] and in experiment [2] was “binds” each time.
